# Assay results taken from PubChem BioAssay AID1768 (National Center for Advancing Translational Sciences (NCATS), 2009).
# Values joined by “and” are separate entries in the source; they are usually repeats but may differ in a detail not shown here. Equal entries are not always repeated. The campaign covered roughly 270,000 compounds. About 620 (0.23%) were called active. This list was built around the results that the source calls inconclusive (neither active nor inactive); the mix of calls is not that of the screen. Calls follow the shape of the dose curve; as a rule, active = well fitted inhibition curve with a large enough effect in the polarisation, with a control signal flat (not every such curve was filed as active); inconclusive = small, poorly fitted or top-dose-only effect, or effect the other way, or a change in a side signal; inactive = no such curve, though single readings can be large or run the other way; the % refers to the polarisation. Potencies of inconclusive entries are doubtful fits and often do not repeat. A note “side channel” means that the fit belongs to a control or component signal, not to the main read-out.
# Target: Menin (Homo sapiens) (UniProt O00255)
# Assay: qHTS Assay for Inhibitors Targeting the Menin-MLL Interaction in MLL Related Leukemias: Competition With Texas Red Labeled MLL-derived Mutant Peptide; as to FP activity change, negative = inhibition: % of control where 0% means no effect
# Conditions: fluorescence polarization; FP activity change, negative = inhibition: at 61.6 µM (top of the series)
# Potency is read from the fitted curve at half-maximal effect; tags tell the direction and shape of the fitted curve or compound fluorescence and quenching.
# Sequence of UniProt O00255 (O00255 whole entry, looked up): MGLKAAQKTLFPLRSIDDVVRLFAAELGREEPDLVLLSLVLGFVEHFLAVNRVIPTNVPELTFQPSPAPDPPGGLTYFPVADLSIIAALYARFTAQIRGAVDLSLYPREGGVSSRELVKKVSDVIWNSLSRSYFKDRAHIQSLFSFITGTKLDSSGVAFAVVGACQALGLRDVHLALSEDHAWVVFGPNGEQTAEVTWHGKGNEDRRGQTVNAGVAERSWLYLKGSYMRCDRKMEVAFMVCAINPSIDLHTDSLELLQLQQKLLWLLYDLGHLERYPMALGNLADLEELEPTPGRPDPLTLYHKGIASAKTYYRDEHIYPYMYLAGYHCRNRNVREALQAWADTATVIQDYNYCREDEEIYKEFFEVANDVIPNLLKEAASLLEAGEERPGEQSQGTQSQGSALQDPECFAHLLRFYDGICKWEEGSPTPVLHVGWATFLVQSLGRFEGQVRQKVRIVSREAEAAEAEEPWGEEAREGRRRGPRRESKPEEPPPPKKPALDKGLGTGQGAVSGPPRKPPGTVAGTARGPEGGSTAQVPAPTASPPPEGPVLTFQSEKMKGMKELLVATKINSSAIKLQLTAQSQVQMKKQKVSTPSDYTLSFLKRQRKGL
SMILES,Potency,"FP activity change, negative = inhibition"
Cc1cc(O)c(C=Nc2cccc(Cl)c2)c(=O)o1,"inconclusive: 12.6 µM [fluorescent, side channel, partial curve]",
C=CCOC(=O)C1=C(C)NC(=O)NC1/C=C/c1ccccc1OC (configuration not stated),"inconclusive: 12.6 µM [fluorescent, side channel, partial curve]",
Cc1ccc(C)c(Cn2c(O)c(N=NC(=S)Nc3ccccc3F)c3ccccc32)c1,"inconclusive: 12.6 µM [quencher, side channel, partial curve]",
CC1CCN(S(=O)(=O)c2ccc3c(c2)c(=O)c(C(=O)N2CCCCC2)cn3C)CC1,,inactive: -6.18%
CCOCCCNC(=O)CN1C(=O)/C(=C/c2ccccc2C)Sc2ccccc21,"inconclusive: 4.47 µM [fluorescent, side channel, full curve, poor fit]",
COc1c2c(nc3ccccc13)OC(C(C)(O)COC(C)=O)C2 (configuration not stated),"inconclusive: 20 µM [inhibitor, single point]",
CC(=O)Nc1nc(-c2ccc(Cl)cc2)ns1,"inconclusive: 39.8 µM [quencher, side channel, partial curve]",
O=C(COc1ccc(-c2ccccc2)cc1)NNC(=O)NC1CCCCC1,"inconclusive: 25.1 µM [fluorescent, side channel, partial curve]",
COc1ccc(CN(C(=O)c2ccc3c(c2)OCCO3)C(C(=O)NC2CCCCC2)c2ccc3ncccc3c2)cc1 (configuration not stated),"inconclusive: 3.55 µM [fluorescent, side channel, full curve]",
Cc1cc(=O)oc2cc(OCCc3ccccc3)ccc12,"inconclusive: 17.8 µM [fluorescent, side channel, partial curve]",
Cc1ccc(C(C)C)c(Oc2nnnn2-c2ccccc2)c1,,inactive: 18.9%
COc1ccc(NS(=O)(=O)c2ccc(NC(=O)c3ccc(N(C)S(C)(=O)=O)cc3)cc2)cc1,"inconclusive: 17.8 µM [quencher, side channel, partial curve]",
O=C(NNC(=S)Nc1ccccc1)c1cc(-c2cccnc2)nc2ccccc12,"inconclusive: 22.4 µM [quencher, side channel, partial curve]",
CN(Cc1ccccc1)CC(O)COc1ccc(CNCCc2cccnc2)cc1 (configuration not stated),"inconclusive: 12.6 µM [fluorescent, side channel, partial curve]",
O=C(Cn1c(=O)c(=O)n(Cc2ccccc2)c2ccc(Cl)cc21)Nc1cc(F)ccc1F,"inconclusive: 35.5 µM [inhibitor, single point]",
COc1ccc(C)cc1S(=O)(=O)Nc1cccc(C)c1,"inconclusive: 0.708 µM [inhibitor, full curve, poor fit]",
COc1cc(/C=C2\SC(N3CCC(C)CC3)=NC2=O)ccc1O,,inactive: -18.6%
COc1ccccc1Oc1coc2cc(OCC(N)=O)ccc2c1=O,"inconclusive: 20 µM [inhibitor, partial curve, poor fit]",
NS(=O)(=O)c1ccc(NC(=O)/C=C/c2ccc(S(=O)(=O)NCc3ccco3)cc2)cc1,"inconclusive: 39.8 µM [fluorescent, single point]",

SMILES,Potency,"FP activity change, negative = inhibition"
CCc1ccc(OCCOCC(O)CN2CCN(Cc3ccc(Cl)cc3)CC2)cc1 (configuration not stated),"inconclusive: 5.62 µM [fluorescent, side channel, full curve]",
Cc1cccc(C(=O)Oc2ccc(/C=N/NC(=O)c3cc(O)cc(O)c3)cc2)c1,"inconclusive: 22.4 µM [quencher, side channel, partial curve]",
Cc1cc(=O)oc(C)c1C(=O)NCCCN1C(C)CCCC1C (configuration not stated),"inconclusive: 17.8 µM [inhibitor, partial curve]",
CCn1c(SCC(=O)Nc2cccc(C)n2)nc2c1c(=O)n(C)c(=O)n2C,,inactive: -21.8%
COc1ccccc1NC(=O)c1ccc(COc2ccc3c(c2)CCC3)cc1,,inactive: 2.33%
COC(=O)/C(=N/Nc1ccccc1C)Sc1nnc(C(O)c2ccccc2)n1-c1ccccc1 (configuration not stated),"inconclusive: 35.5 µM [fluorescent, side channel, partial curve]",
C/C(=N\NC(=O)Cc1c[nH]c2ccccc12)c1ccc2ccccc2c1,"inconclusive: 22.4 µM [quencher, side channel, single point]",
O=C(O)c1ccc(N2N=C(c3ccccc3)CC2c2ccccc2)cc1 (configuration not stated),"inconclusive: 25.1 µM [quencher, side channel, single point]",
COC(=O)c1c(-c2ccccc2)nn(-c2ccccc2)c1C(=O)OC,"inconclusive: 31.6 µM [inhibitor, single point]",
N#CCc1nc(C(c2ccccc2)c2ccccc2)no1,"inconclusive: 15.8 µM [quencher, side channel, partial curve]",
S=C(NCc1ccco1)Nc1cc(Cl)c(Cl)cc1Cl,"inconclusive: 12.6 µM [quencher, side channel, partial curve]",
Cc1cccc(OCC(O)Cn2c(N3CCCCC3)nc3c2c(=O)n(C)c(=O)n3C)c1 (configuration not stated),"inconclusive: 11.2 µM [fluorescent, side channel, partial curve]",
CCOc1ccc(S(=O)(=O)N2CCN(c3ccccn3)CC2)cc1,"inconclusive: 44.7 µM [inhibitor, partial curve, poor fit]",
COc1cc2c(cc1NC(=O)Nc1ccccc1)oc1ccccc12,"inconclusive: 3.16 µM [quencher, side channel, full curve]",
Cc1ccc(-c2csc3nc(C)n(-n4c(C)ccc4C)c(=O)c23)o1,,inactive: -17.2%
COc1ccc(-[n+]2c(C)cc(/C=C3\Sc4ccccc4N3C)cc2C)cc1,"inconclusive: 11.2 µM [inhibitor, partial curve]",
CCN(CC)c1ccc(/C=N/NC(=O)c2ccc([N+](=O)[O-])cc2)cc1,"inconclusive: 31.6 µM [quencher, side channel, single point]",
C/C(=C(/CCO)SS/C(CCO)=C(\C)N(C=O)Cc1cnc(C)nc1N)N(C=O)Cc1cnc(C)nc1N,,inactive: 2.56%
COc1ccc(C(=O)N2CCC3(CCCN(c4ccc(-c5ccccc5)cc4)C3)CC2)cc1,"inconclusive: 20 µM [fluorescent, side channel, partial curve]",

SMILES,Potency,"FP activity change, negative = inhibition"
Cc1oc2c(C)c(O)ccc2c(=O)c1-c1nncn1-c1ccccc1,,inactive: 10.1%
Nc1nc(SCC(=O)c2cccc([N+](=O)[O-])c2)n[nH]1,,inactive: 4.86%
CC(C)Cc1cc(-c2ccco2)c(C#N)c(N)n1,,inactive: -8.81%
COc1ccc(N=C2C(=O)N3c4c(cccc42)C(C)=CC3(C)C)cc1,"inconclusive: 10 µM [fluorescent, side channel, partial curve]",
Cn1c(NC(=O)c2cc(-c3ccc4c(c3)OCO4)nc3ccccc23)cc(=O)n(C)c1=O,"inconclusive: 31.6 µM [quencher, side channel, single point]",
O=C(NC(=S)Nc1nc(-c2cccc([N+](=O)[O-])c2)cs1)c1ccccc1Cl,"inconclusive: 14.1 µM [quencher, side channel, partial curve]",
CCOC(=O)C1=C(C)N=c2s/c(=C\c3ccc(O)c([N+](=O)[O-])c3)c(=O)n2C1c1ccccc1OC (configuration not stated),"inconclusive: 10 µM [quencher, side channel, partial curve]",
C=CCn1c(=O)c2ccc(C(=O)NCc3ccccc3)cc2n(Cc2ccc(Cl)cc2)c1=O,,inactive: -4.75%
COc1ccc2[nH]c(C(=O)NCCCn3ccnc3)cc2c1,"inconclusive: 22.4 µM [quencher, side channel, single point]",
CCN(c1ccccc1)S(=O)(=O)c1nnc(NC(=O)c2ccccc2OC)s1,"inconclusive: 11.2 µM [quencher, side channel, partial curve]",
CCc1ccc(CN(C)CC(=O)Nc2ccc3c(c2)CCC3)cc1,"inconclusive: 8.91 µM [fluorescent, side channel, partial curve]",
COC(=O)[C@H](C)NC(=O)[C@@H](C)CO,,inactive: -16.5% [at 11.7 µM]
Cc1cccc(C)c1NC(=O)CN1CCN(CCCC(c2ccc(F)cc2)c2ccc(F)cc2)CC1,"inconclusive: 8.91 µM [fluorescent, side channel, partial curve]",
Cc1ccc(Nc2nc(-c3ccncc3)cs2)cc1,"inconclusive: 28.2 µM [quencher, side channel, single point]",
NC1=NC(=O)/C(=C/c2cccc(F)c2)S1,"inconclusive: 17.8 µM [fluorescent, side channel, single point]",
Cc1nc(N=Nc2cc(S(=O)(=O)O)c3cc([N+](=O)[O-])cc(S(=O)(=O)O)c3c2)c(COP(=O)(O)O)c(C=O)c1O,"inconclusive: 39.8 µM [quencher, side channel, partial curve] and inconclusive: 31.6 µM [quencher, side channel, partial curve]",
Nc1nnc(SCC(=O)NCCOc2ccccc2)s1,,inactive: -12.6%
COc1ccc(S(=O)(=O)N=C2C=C(C)C(=O)C(C)=C2)cc1,"inconclusive: 28.2 µM [quencher, side channel, single point]",
Cn1c(N)c(C(=O)COC(=O)c2cc(-c3ccccc3)nc3ccccc23)c(=O)n(Cc2ccccc2)c1=O,"inconclusive: 4.47 µM [quencher, side channel, partial curve] and inconclusive: 2.51 µM [inhibitor, partial curve, poor fit]",
